According to a collection of fitness landscapes (doi:10.1126/science.1257360):
This is one part of the list.

B1: PhoQ; a variant is named by its letters at X, in order, P23837 (parent)
chain: MKKLLRLFFPLSLRVRFLLATAAVVLVLSLAYGMVALIGYSVSFDKTTFRLLRGESNLFYTLAKWENNKLHVELPENIDKQSPTMTLIYDENGQLLWAQRDVPWLMKMIQPDWLKSNGFHEIEADVNDTSLLLSGDHSIQQQLQEVREDDDDAEMTHSVAVNVYPATSRMPKLTIVVVDTIPVELKSSYMVWSWFIYVLSANLLLVIPLLWVAAWWSLRPIEALAKEVRELEEHNRELLNPATTRELTSLVRNLNRLLKSERERYDKYRTTLTDLTHSLKTPLXXLQXXLRSLRSEKMSVSDAEPVMLEQISRISQQIGYYLHRASMRGGTLLSRELHPVAPLLDNLTSALNKVYQRKGVNISLDISPEISFVGEQNDFVEVMGNVLDNACKYCLEFVEISARQTDEHLYIVVEDDGPGIPLSKREVIFDRGQRVDTLRPGQGVGLAVAREITEQYEGKIVAGESMLGGARMEVIFGRQHSAPKDE

Variants of: B1
Experiment: enrichment ratio after two sorts for PhoP signalling (ratio (wild type AVST 3.29)); higher = more functional
Details: with PhoP (E. coli)

| Variant | enrichment ratio |
| --- | --- |
| DNIT | ≤ 0.25 |
| THWQ | ≤ 0.25 |
| VTPG | ≤ 0.25 |
| DPDQ | ≤ 0.25 |
| SLKL | ≤ 0.25 |
| NWDS | ≤ 0.25 |
| VLDC | ≤ 0.25 |
| MKAK | ≤ 0.25 |
| LTIF | ≤ 0.25 |
| AGST | 14.8 |
| YDEW | ≤ 0.25 |
| VFHI | ≤ 0.25 |
| NLNP | ≤ 0.25 |
| LCLD | ≤ 0.25 |
| MFFN | ≤ 0.25 |
| ETDW | ≤ 0.25 |
| WGTY | ≤ 0.25 |
| HAAI | ≤ 0.25 |
| RQCW | ≤ 0.25 |
| STMY | 12.6 |
| APAC | ≤ 0.25 |
| MQSA | ≤ 0.25 |
| SLRG | ≤ 0.25 |
| VQYC | ≤ 0.25 |
| IIYM | ≤ 0.25 |
| RIDK | ≤ 0.25 |

| Variant | enrichment ratio |
| --- | --- |
| GGIC | 5.5 |
| EKRA | ≤ 0.25 |
| NLAY | ≤ 0.25 |
| DFIY | ≤ 0.25 |
| PDPT | ≤ 0.25 |
| FLRE | ≤ 0.25 |
| EEWI | ≤ 0.25 |
| HLDW | ≤ 0.25 |
| FFEW | ≤ 0.25 |
| AYHT | ≤ 0.25 |
| TGHP | ≤ 0.25 |
| QDQC | ≤ 0.25 |
| TTYY | 2.55 |
| PANA | ≤ 0.25 |
| LQNE | ≤ 0.25 |
| VVTG | ≤ 0.25 |
| DYKN | ≤ 0.25 |
| SSEW | ≤ 0.25 |
| DDGL | ≤ 0.25 |
| YWMY | ≤ 0.25 |
| RLLY | ≤ 0.25 |
| LKAY | ≤ 0.25 |
| KQVH | ≤ 0.25 |
| FAMH | ≤ 0.25 |
| HRFM | ≤ 0.25 |
| PMWD | ≤ 0.25 |

| Variant | enrichment ratio |
| --- | --- |
| QDCM | ≤ 0.25 |
| KANA | ≤ 0.25 |
| FRLH | ≤ 0.25 |
| RGYT | ≤ 0.25 |
| ISYP | ≤ 0.25 |
| HDQE | ≤ 0.25 |
| YADY | ≤ 0.25 |
| RCPE | ≤ 0.25 |
| IDWV | ≤ 0.25 |
| TDFM | ≤ 0.25 |
| TFDP | ≤ 0.25 |
| ASTD | ≤ 0.25 |
| PHPK | ≤ 0.25 |
| SRFD | ≤ 0.25 |
| YNIY | ≤ 0.25 |
| IRDI | ≤ 0.25 |
| NHFL | ≤ 0.25 |
| QIHP | ≤ 0.25 |
| IVYW | ≤ 0.25 |
| EGAP | ≤ 0.25 |
| PFSG | ≤ 0.25 |
| ALSP | ≤ 0.25 |
| GGNF | ≤ 0.25 |
| KMFW | ≤ 0.25 |
| YGTK | ≤ 0.25 |
| NSHV | ≤ 0.25 |

| Variant | enrichment ratio |
| --- | --- |
| GYPP | ≤ 0.25 |
| VRQH | ≤ 0.25 |
| QMRS | ≤ 0.25 |
| RGWL | ≤ 0.25 |
| WMNM | ≤ 0.25 |
| YYWA | ≤ 0.25 |
| QKYA | ≤ 0.25 |
| EDSD | ≤ 0.25 |
| TAAR | ≤ 0.25 |
| THCR | ≤ 0.25 |
| QLYG | ≤ 0.25 |
| HSWI | ≤ 0.25 |
| DQNC | ≤ 0.25 |
| WQVN | ≤ 0.25 |
| PAIV | ≤ 0.25 |
| GWMC | ≤ 0.25 |
| DSTK | ≤ 0.25 |
| DNWY | ≤ 0.25 |
| LMMK | ≤ 0.25 |
| IYQY | ≤ 0.25 |
| YRGA | ≤ 0.25 |
| DIVT | ≤ 0.25 |
| QVVC | ≤ 0.25 |
| NLPC | ≤ 0.25 |
| LFAS | ≤ 0.25 |
| QYWA | 0.652 |

| Variant | enrichment ratio |
| --- | --- |
| LKTL | ≤ 0.25 |
| VTKH | ≤ 0.25 |
| WISF | ≤ 0.25 |
| GDEL | ≤ 0.25 |
| AMPH | ≤ 0.25 |
| FWNY | ≤ 0.25 |
| GTCG | 7.53 |
| ACCN | 12.1 |
| DNPH | ≤ 0.25 |
| SYVQ | ≤ 0.25 |
| VDFQ | ≤ 0.25 |
| EQDA | ≤ 0.25 |
| EYNT | ≤ 0.25 |
| AFVI | ≤ 0.25 |
| LQHQ | ≤ 0.25 |
| TGQY | 5.59 |
| AKWD | ≤ 0.25 |
| FKMK | ≤ 0.25 |
| YQKP | ≤ 0.25 |
| VRRK | ≤ 0.25 |
| DPVH | ≤ 0.25 |
| RCTD | ≤ 0.25 |
| PIPW | ≤ 0.25 |
| TLDG | ≤ 0.25 |
| QLRS | ≤ 0.25 |
| RCDW | ≤ 0.25 |

| Variant | enrichment ratio |
| --- | --- |
| SAYH | ≤ 0.25 |
| AHCI | 4.38 |
| HYYC | ≤ 0.25 |
| WGFI | ≤ 0.25 |
| VMYV | ≤ 0.25 |
| KGNG | ≤ 0.25 |
| RHTQ | ≤ 0.25 |
| LGNF | ≤ 0.25 |
| YIFR | 0.278 |
| LHGN | ≤ 0.25 |
| WHYM | ≤ 0.25 |
| DEYF | ≤ 0.25 |
| HWKD | ≤ 0.25 |
| RIYK | ≤ 0.25 |
| RGGH | ≤ 0.25 |
| YIPI | ≤ 0.25 |
| FPKQ | ≤ 0.25 |
| KACN | ≤ 0.25 |
| EDLI | ≤ 0.25 |
| YWCE | ≤ 0.25 |
| PETK | ≤ 0.25 |
| LDEN | ≤ 0.25 |
| NNIL | ≤ 0.25 |
